Certain results were filed several times, with different values. The other results are left out here. There may be further records. The records of an entry are repeated measurements (runs, samples, wells, individuals or studies). Marks such as [2022-09] give the month of the run. Marks such as (2×) stand for listed records that agree.
Test system: KRAS-mutant PDC multicell tumor spheroid viability
Test: Anticancer human tumor 521955-158-R2-J5-PDC patient-derived pancreatic carcinoma cell line growth inhibition [KRAS2]
Conditions: for viability, T/C: stronger effect = lower value; for IC50: compound alone
Text: Multicellular complex tumor spheroid response to RAS pathway inhibitors in combination with a targeted agents in patient-derived cell lines with oncogenic KRAS variants from multiple cancer types
A high-throughput screen of multi-cell type tumor spheroids was designed to identify active combinations of targeted small molecules and KRAS pathway inhibitors. Complex spheroids include a stromal component modeled by human endothelial cells (HUVEC) and fibroblasts modeled by human mesenchymal stem cells (MSCs). The concentration ranges selected for each drug and investigational agent were based upon clinically achievable concentrations if the clinical Cmax of the agent was known.
Compounds. The drugs and investigational agents: BI-3406 (NSC825286), BAY-293 (NSC824723), batoprotafib (TNO155; NSC825523), sotorasib (AMG 510; NSC818433), MRTX1257 (NSC819558), elimusertib (BAY 1895344; NSC800525), molibresib (GSK525762; NSC774829), temuterkib (LY3214996; NSC803410), venetoclax (NSC766270), alisertib (NSC759677), olaparib (NSC753686), talazoparib (NSC767125), erdafitinib (NSC781556), ipatasertib (NSC767898), cabozantinib (NSC761068), nintedanib (NSC756659), abemaciclib (NSC768073), docetaxel (NSC628503), trametinib (NSC758246), and sapanisertib (NSC764658) were obtained from the National Cancer Institute (NCI) Developmental Therapeutics Program Chemical Repository. The FDA-approved anticancer drug set is available from the Developmental Therapeutics Program. […] The stock solutions were prepared in dimethyl sulfoxide (DMSO, Sigma-Aldrich, St. Louis, MO, cat. D2650) at 800-fold the tested concentration and stored at -70 degrees C prior to their use. All drugs and investigational agents were tested over a range starting from a high concentration at or near the clinical Cmax and decreasing in half-log increments. If the clinical Cmax for an agent had not been determined, the highest concentration tested was 10 microM.
Cell Culture. All cells were maintained in an incubator at 37 degrees C and 5% CO2 with 95% humidity. The PDC lines were cultured according to standard operating procedures established by the NCI PDMR (https://pdmr.cancer.gov/sops/default.htm). Briefly, all PDCs were thawed and cultured in Matrigel-coated flasks prepared with a working solution of 1X Ham's F-12 nutrient mix, without supplementation (Invitrogen, Waltham, MA, cat. 11765054), 100 U/mL penicillin-streptomycin (Invitrogen, cat. 15140122), and 2.5% Matrigel (Corning Inc., Corning, NY, cat. 354248) for the first three passages. All PDCs were cultured in complete DMEM/F-12 media containing advanced DMEM/F-12 (Invitrogen, cat. 12634028), 4.9% defined fetal bovine serum, heat inactivated (HyClone Laboratories Inc., Logan, UT, cat. SH30070.03HI), 389 ng/mL hydrocortisone (Sigma-Aldrich, cat. H4001), 9.7 ng/mL human EGF recombinant protein (Invitrogen, cat. PHG0313), 23.4 microg/mL adenine (Sigma-Aldrich, cat. A2786), 97.3 U/mL penicillin-streptomycin (Invitrogen, cat. 15140122), 1.9 mM L-glutamine (Invitrogen, cat. 25030081), and 9.7 microM Y-27632 dihydrochloride (Tocris Bioscience, Bristol, United Kingdom, cat. 1254). The PDCs were cultured in complete DMEM/F12 media without 9.7 microM Y-27632 dihydrochloride for at least two passages prior to the screen. The established cell line HOP-62 was cultured in RPMI 1640 medium, HEPES (Invitrogen, cat. 22400105) with 10% defined fetal bovine serum (HyClone Laboratories Inc., cat. SH30070.03) and 2 mM L-glutamine (Invitrogen, cat. 25030081). The pooled donor HUVEC were cultured in endothelial cell growth medium 2 (PromoCell, Heidelberg, Germany, cat. C-22011) and the hMSC were cultured in mesenchymal stem cell growth medium 2 (PromoCell, cat. C-28009). For all experiments, HUVEC and hMSC were used at passages </=5, while the malignant cell lines were used at passages </=15. […]
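Also: viability read after seven days of drug exposure.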

Structure (SMILES): COc1cc(OC)cc(N(CCNC(C)C)c2ccc3ncc(-c4cnn(C)c4)nc3c2)c1
- viability, T/C (compound alone 3.16 µM): 130, 133, 117, 137, 144%

Structure (SMILES): CC1(C)CCC(CN2CCN(c3ccc(C(=O)NS(=O)(=O)c4ccc(NCC5CCOCC5)c([N+](=O)[O-])c4)c(Oc4cnc5[nH]ccc5c4)c3)CC2)=C(c2ccc(Cl)cc2)C1
- viability, T/C (compound alone 3.16 µM): 88.8, 67, 105, 79.8, 108%
- viability, T/C (compound alone 10 µM): 20.5, 7.52, 20.7, 25.4, 45.5%

Structure (SMILES): COc1cc2nccc(Oc3ccc(NC(=O)C4(C(=O)Nc5ccc(F)cc5)CC4)cc3)c2cc1OC
- IC50: > 10 µM, 7.12 µM, 8.78 µM, 8.34 µM, 8.04 µM
- viability, T/C (compound alone 3.16 µM): 82.7, 87.1, 93.5, 115, 100%

Structure (SMILES): C=CC(=O)N1CCN(c2nc(OCC3CCCN3C)nc3c2CCN(c2cccc4cccc(C)c24)C3)CC1CC#N (stereo unspecified)
- viability, T/C (compound alone 0.0316 µM): 101 (2×), 93.2, 103 (3×), 69.4, 95.3, 106, 102, 93.7% [2021-08] and 103, 86.8, 99.2 (2×), 99.4, 92.8% [2021-09]
- viability, T/C (compound alone 0.1 µM): 120, 92.5, 83.3, 73.1, 108, 104, 97.1, 96.2, 91.4, 96, 101% [2021-08] and 108, 88.5, 97.6, 93.9, 88.1, 103% [2021-09]
- viability, T/C (compound alone 0.316 µM): 96.2, 77, 82.6, 70.9, 97.6 (2×), 74.5, 85.2, 96.8, 83.8, 93.1% [2021-08] and 96, 100, 92.8, 95.8, 88.8, 96.5% [2021-09]
- viability, T/C (compound alone 1 µM): 92.4, 76, 95.9, 57.5, 88.7, 72.6, 92.7, 84, 82.5, 71.6, 83.8% [2021-08] and 88.2, 80.9, 81.1, 90, 82.6, 101% [2021-09]
- viability, T/C (compound alone 3.16 µM): 111, 0.75, 2.66, 2.39, 0.31, 2.34, 17.3, 30.6, 10.1, 5.77, 11% [2021-08] and 16.2, 20.6, 18.2, 24.9, 12.8, 24.7% [2021-09]
- IC50 (run of 08/19/2021): > 3.16 µM, 1.44 µM, 1.71 µM, 1.17 µM, 1.65 µM, 1.36 µM

Structure (SMILES): COc1cc2nc(C)nc(NC(C)c3cc(N)cc(C(F)(F)F)c3)c2cc1OC1CCOC1 (stereo unspecified)
- viability, T/C (compound alone 0.316 µM): 74.2, 86.1, 79.5, 99.6, 86.4, 79, 68.4, 81.9, 71.5, 80.4, 82.3% [2021-08] and 86.5, 93.9, 91.1, 76.4, 83.3, 90.4% [2021-09]
- viability, T/C (compound alone 1 µM): 80.3, 78.3, 101, 88.9, 83.1, 72.5, 82.2, 72.6, 75.3, 86.1, 64.3% [2021-08] and 86.8, 90.7, 90.8, 91.8, 81.4, 101% [2021-09]
- viability, T/C (compound alone 3.16 µM): 81.6, 85, 102, 91.9, 85.1, 87.3, 86.2, 80.4, 86.5, 86.9, 81.5% [2021-08] and 90, 94.1, 81.6, 89.5, 88.6, 107% [2021-09]
- viability, T/C (compound alone 10 µM): 82.5, 82.8, 107, 12.1, 26.7, 3.7, 88.7, 61.1, 65, 75.7, 57.8% [2021-08] and 78.4 (2×), 81.3, 72.7, 79.3, 102% [2021-09]
- IC50 (run of 08/19/2021): > 10 µM, 5.79 µM, 6.31 µM, 5.06 µM

Structure (SMILES): CN(C)C/C=C/C(=O)Nc1cc2c(Nc3ccc(F)c(Cl)c3)ncnc2cc1O[C@H]1CCOC1
- viability, T/C (compound alone 0.1 µM): 76.9, 72.7, 85.9, 86, 97.8%

Structure (SMILES): COC(=O)c1ccc2c(C(=Nc3ccc(N(C)C(=O)CN4CCN(C)CC4)cc3)c3ccccc3)c(O)[nH]c2c1
- viability, T/C (compound alone 0.316 µM): 67, 81.4, 110, 113, 109%
- viability, T/C (compound alone 1 µM): 110, 96.7, 105, 113, 130%
- viability, T/C (compound alone 3.16 µM): 27.3, 22, 57.4, 14.3, 10.4%

Structure (SMILES): CC1COCCN1c1cc(-c2ccnn2C)c2ccnc(-c3ccn[nH]3)c2n1 (stereo unspecified)
- viability, T/C (compound alone 0.0316 µM): 55.9, 52.3, 60.6, 40.6, 31.4%

Structure (SMILES): CC1OCC2(CCN(c3cnc(Sc4ccnc(N)c4Cl)c(N)n3)CC2)C1N (stereo unspecified)
- viability, T/C (compound alone 0.1 µM): 40.3, 65.7, 72.9, 72.1, 70.2, 69.6 (2×), 70.5, 74, 66.2, 65.3% [2021-08] and 83.9, 94.5, 74.2, 75.8, 71.3, 77.8, 71.9, 70.5% [2021-09]
- viability, T/C (compound alone 0.316 µM): 43.1, 77, 51.5, 49.7, 67.2, 62.7, 57.2, 54.7, 59.6, 68.1, 64.5% [2021-08] and 70.4, 86.7, 76.9, 67.2, 69.2, 80.8, 74, 83.5% [2021-09]
- viability, T/C (compound alone 1 µM): 70.5, 107, 98.2, 60.3, 55.3, 54.8, 43.2, 47.7, 53.8, 58, 58.1% [2021-08] and 65.1, 71, 61, 69.5, 66.3, 65.8, 65.5, 70% [2021-09]
- viability, T/C (compound alone 3.16 µM): 33.1, 40.3, 40.9, 57.3, 57.4, 54, 36.7, 44.1, 48.6, 56.3, 48% [2021-08] and 58.5, 72.8, 70.3, 67.8, 67.2, 63.2, 53.4, 71.5, 64.3% [2021-09]
- viability, T/C (compound alone 10 µM): 36.9, 96.7, 46.7, 51.5, 45.6, 47.3, 29.7, 40.4, 29.1, 45.8, 43.8% [2021-08] and 61.7, 77.9, 64.5, 78.5, 53.1, 61.5, 38.4, 51.8, 58.3% [2021-09]
- IC50 (run of 08/19/2021): 1.1 µM, > 10 µM, 2.5 µM, 5.86 µM, 5.61 µM
- IC50 (run of 08/26/2021): 587 nM, 678 nM, 1.52 µM, 5.97 µM, 3.46 µM

Structure (SMILES): CNCc1ccccc1-c1csc(C(C)Nc2nc(C)nc3cc(OC)c(OC)cc23)c1 (stereo unspecified)
- viability, T/C (compound alone 1 µM): 96.1, 109, 101, 83.4, 102, 95, 82.2, 91.3, 90.7, 117, 91% [2021-08] and 112, 97, 97.6, 101, 120, 114% [2021-09]
- viability, T/C (compound alone 3.16 µM): 99.6, 0.56, 0.74, 0.13, 0.22, 0.81, 0.18, 0.28, 0.33, 1.19, 1.69% [2021-08] and 0.25, 0.55, 69.4, 0.97, 7.27, 0.21% [2021-09]
- IC50 (run of 08/19/2021): 1.73 µM and 5.47, 1.83, 1.76, 1.59 µM [2021-08]

From PubChem BioAssay AID1963871 (Molecular Pharmacology Branch, DTP, NCI, 2024)
